Laboratory results as given in the supplement of paper PMC12217912.
Some of the results follow. Sequences were assembled here from the parent chain. Inactive controls read about 0.05.

B1: TEV protease; numbered along this chain (parent)
chain: MGESLFKGPRDYNPISSSICHLTNESDGHTTSLYGIGFGPFIITNKHLFRRNNGTLVVQSLHGVFKVKDTTTLQQHLVDGRDMIIIRMPKDFPPFPQKLKFREPQREERICLVTTNFQTKSMSSMVSDTSCTFPSGDGIFWKHWIQTKDGQCGSPLVSTRDGFIVGIHSASNFTNTNNYFTSVPKNFMELLTNQEAQQWVSGWRLNADSVLWGGHKVFMVKPEEPFQPVKEATQL

Variants of: B1
Experiment: raw area under fraction-flipped curve 0-4 h after induction (AUC4h, not background-subtracted), DNA-recorder readout of cleavage of the substrate (dimensionless); higher = more cleavage of the substrate by the protease variant
Conditions: temperature: 34 °C; time window: 0-4 h after rhamnose induction
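Further: Bxb1 expression induced with 0.2% (w/v) L-rhamnose at OD600 near 0.5, cultures sampled hourly, flipped fraction per protease–substrate barcode pair counted by paired-end Illumina sequencing.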

Variant	area with substrate ENLDFQS	area with substrate ENLEFQS	area with substrate ENLFFQS	area with substrate ENLKFQS	area with substrate ENLNFQS	area with substrate ENLRFQS	area with substrate ENLSFQS	area with substrate ENLIFQS	area with substrate ENLHFQS	area with substrate ENLLFQS
P228T	0.0662	0.0723	0.0924	0.0768	0.0586	0.0607	0.0452			
K230R	0.071			0.0695	0.0672	0.0838		0.0903		
E231D	0.0873			0.0846	0.0749				0.0585	0.0823
A232D	0.0515		0.0862	0.062	0.0464	0.0788	0.0596	0.0991	0.0664	
T233I	0.0574	0.0938	0.0762		0.0655					
K7F		0.0458				0.0751			0.06	0.115
L33T		0.0675	0.072	0.0706	0.051				0.0739	
G35F		0.0578	0.0393					0.0455		
G35Y		0.0344		0.0467		0.0448				
I36G		0.0389	0.0434	0.0556	0.0278					
N53P		0.0689	0.0591	0.0667	0.0705	0.0553	0.0553	0.0763	0.0752	
L61I		0.0614	0.0721		0.0715	0.117		0.0938	0.0909	0.0788
L73A		0.0916	0.0624	0.0734	0.0627	0.0469	0.0396		0.0651	
V78H		0.0649	0.0649		0.0603	0.062		0.0593		0.0588
F101A		0.0568	0.0546	0.0575	0.0581		0.0524	0.0626		
T114S		0.0828	0.102	0.073	0.0731		0.092	0.0891	0.069	0.0776
T119K		0.066								0.0642
V126D		0.0648	0.099	0.0749	0.0644	0.0642			0.0797	
S130A		0.0662	0.0696	0.0529	0.0642	0.0606	0.0499		0.0696	
P134M		0.0438	0.0728				0.046	0.0745	0.062	
I145A		0.0572	0.0926		0.0794	0.0934				

Variant	area with substrate ENLDFQS	area with substrate ENLEFQS	area with substrate ENLFFQS	area with substrate ENLKFQS	area with substrate ENLNFQS	area with substrate ENLRFQS	area with substrate ENLSFQS	area with substrate ENLIFQS	area with substrate ENLHFQS	area with substrate ENLLFQS
V165K		0.047	0.0619	0.0589	0.0522	0.0583	0.0506	0.0474	0.0774	0.0524
F173K		0.063		0.0757		0.0556			0.0431	
T181N		0.0644	0.0629				0.0402			
M188H		0.0749	0.0689	0.0823	0.0822		0.08		0.112	
N193H		0.0567	0.0801	0.07	0.064		0.0594	0.118	0.0521	0.0595
A196P		0.0512	0.0743	0.0374	0.0664		0.063	0.0802	0.0469	0.0875
S201T		0.0552		0.0928	0.0673	0.0782		0.0661		0.11
D208A		0.0758		0.0932	0.0508	0.0593	0.0557			
G213I		0.0784	0.0659	0.0628					0.0469	0.0355
L235R		0.0671								
R51D			0.0925	0.0817	0.0746				0.0717	
G63E			0.0752	0.0687	0.0645	0.0681		0.0718		
T72W			0.0775	0.075	0.0654	0.0715	0.0587		0.0595	
L73M			0.0645	0.0819		0.0588		0.0826	0.0642	0.0666
P94C			0.091	0.0761	0.0626					
P94H			0.0846	0.0821	0.047	0.0761	0.0663	0.0802	0.0419	0.0684
R109M			0.113				0.0703	0.0887		
I110A			0.111							
P134A			0.129	0.0814	0.0732		0.0633			
D137W			0.085	0.076	0.0609	0.0764	0.0516			
D149A			0.091	0.0817	0.0632	0.0644	0.0546	0.0887	0.087	0.0794

Variant	area with substrate ENLDFQS	area with substrate ENLEFQS	area with substrate ENLFFQS	area with substrate ENLKFQS	area with substrate ENLNFQS	area with substrate ENLRFQS	area with substrate ENLSFQS	area with substrate ENLIFQS	area with substrate ENLHFQS	area with substrate ENLLFQS
A170P			0.0476	0.0587		0.0637				
F180Y			0.0864	0.0752	0.0659				0.0682	0.0699
S182D			0.0561				0.0362			0.0529
F187V			0.0901	0.0519		0.0516	0.0609	0.0826	0.0628	0.0561
S209T			0.0899		0.0601	0.0675		0.0978		
V210A			0.0797	0.0615		0.0753	0.0534			0.0708
W212H			0.0434		0.0647					0.0559
K216E			0.0825		0.0512		0.0719		0.0603	
P225Y			0.0947	0.0659	0.0752		0.0687	0.0824	0.0582	0.0597
V78Q					0.0543					
S158T				0.0519						
E231K				0.0808	0.072		0.0782	0.0803	0.0698	
T233A					0.0601					0.105
G213E						0.0616			0.0592	
Q97V				0.0685				0.0698		
F95Q				0.0687						0.0641
G138E				0.0565	0.0735		0.0723			
T159W				0.0745			0.0647			
S201F				0.0597			0.073			

Same assay, conditions: temperature: 34 °C; time window: 0-4 h after rhamnose induction

Variant	area with substrate ENLTFQS	area with substrate ENLWFQS	area with substrate ENLQFQS	area with substrate ENLPFQS	area with substrate ENLGFQS	area with substrate ENLMFQS	area with substrate ENLVFQS
E231D	0.0729	0.0755					
A232D		0.0958	0.0691				
T233I			0.0733				
K7F		0.0617	0.0621				
L33T	0.0762			0.0536			
G35F					0.0367		
G35Y				0.03			
I36G			0.0467	0.0414			
N53P		0.0556	0.0442	0.0364	0.0836	0.0499	
L61I			0.0562				
V78H		0.0429	0.0625		0.0733		0.0683
F101A			0.0581		0.0613		0.0531
T114S		0.0963		0.0563		0.0754	0.0508
T119K				0.0464			
V126D			0.0833	0.0341	0.0537		
S130A			0.0976	0.0529	0.0486		
I145A				0.0574	0.0807	0.0797	
V165K	0.0548	0.0503	0.0533	0.0543	0.054	0.0698	0.0496
M188H				0.052	0.069	0.0862	0.0706
N193H						0.0728	0.074
A196P		0.0778	0.066	0.0584	0.0589	0.0758	0.0683
S201T		0.0946		0.042			
D208A							0.0508
G213I		0.0453	0.0592	0.0573	0.0521		0.0693
R51D	0.0691	0.0793	0.0818				0.0543
G63E	0.0632	0.0509	0.0605			0.0636	0.0664

Variant	area with substrate ENLTFQS	area with substrate ENLWFQS	area with substrate ENLQFQS	area with substrate ENLPFQS	area with substrate ENLGFQS	area with substrate ENLMFQS	area with substrate ENLVFQS
T72W	0.0454	0.0556			0.0651	0.0666	
L73M		0.0596	0.0637				0.0562
P94H		0.0805		0.0623			
I110A			0.0699				
P134A		0.071		0.0815		0.0799	
D137W			0.0748	0.0818	0.0733		
D149A			0.0843	0.0472			
A170P		0.066					
F180Y			0.0642	0.0694			0.0855
S182D		0.0553			0.0603	0.0592	0.0594
F187V				0.0642		0.0506	
S209T		0.0676					
V210A		0.0719	0.0555				
W212H	0.0566						
K216E							0.0777
P225Y		0.0679	0.076			0.0609	
V78Q					0.0659		
S158T					0.0653		
E231K					0.07		
T233A			0.0649	0.0424	0.039		
G213E		0.0721					
F95Q				0.0471			
G138E	0.0547			0.0452			
T159W						0.069	
C131L		0.0755					
